# Where “and” joins values, the source holds several entries; their conditions need not be identical. Identical values can stand only once. The list shows a part of the results. These are further read-outs of the screen, such as a control signal, another cell line or another target. No call is given for them. The list favours compounds with an active or inconclusive main result.
# Assay: inhibitors of triacylglycerol accumulation, primary screen, cell-based, uHTS, fluorescence, H9c2 (AID 651582)
# Conditions: H9c2 cells, Nile Red lipid (TAG) fluorescence; measured here:; at 12.5 µM; cells loaded with 200 µM oleic acid
row,SMILES,"DAPI nuclei signal change (viability), lower = more cytotoxic"
1,CCOCCC(=O)Nc1ccc2c(c1)c(=O)n(C)n2C/C=C/c1ccccc1,-29.1%
2,CCCCc1ccc(N=N/C(C(=O)Nc2cc(OC)c(NC(C)=O)cc2OC)=C(/C)O)cc1,12.9%
3,O=c1c(Br)ccc(Br)cc1Br,-45.4%
4,C=CCN1C(=O)/C(=C2\SC(N3CCOCC3)=NC2=O)c2cc(Br)ccc21,10.4%
5,COc1ccc(CNC(=O)c2c(C)oc3c2C(=O)c2ccccc2C3=O)cc1,-43.3%
6,CCO[C@@H]1OC(C(=O)N2CCN(Cc3ccc4c(c3)OCO4)CC2)=C[C@H](C)[C@H]1CCCO,-32%
7,CC(C)n1cc(NC(=O)c2cc(-c3ccccc3)on2)cn1,-11.9%
8,CCC(C)(C)C1CCC2(CC1)NC(=O)N(CC(=O)NCCc1ccc(OC)c(OC)c1)C2=O (stereo not drawn),-3.8%
9,CC(=O)c1cccc(-c2ccnc3c2CC(C(=O)NCc2ccco2)O3)c1 (stereo not drawn),-35.9%
10,CCn1cc([N+](=O)[O-])c(C(=O)N2N=C(c3ccc4ccccc4c3)CC2c2cc(Br)ccc2O)n1 (stereo not drawn),-3.47%
11,COC(=O)c1cc(NC(=O)c2c(Cl)nc3sccn23)cc(C(=O)OC)c1,-35.7%
12,CC1=CC(C)(C)N2C(=O)C3(NCCc4c3[nH]c3ccccc43)c3cc(C)cc1c32 (stereo not drawn),-32.7%
13,N#CC(C#N)=c1ccc2c(c1)N1C3=C(CCCC3)CC3CCCCC31N=2 (stereo not drawn),-21.3%
14,COc1cc(OC)c2c(-c3ccccc3)cc(=O)oc2c1C(CCN1CCCCC1)c1ccc2c(c1)OCO2 (stereo not drawn),-22%
15,CCC(C)(C)NC(=O)C(c1ccc(C)cc1)N(Cc1ccco1)C(=O)CCC(=O)Nc1nccs1 (stereo not drawn),-1.03%
16,COC(=O)c1ccc(Oc2cc(C)nc(SC)n2)cc1,-24.8%
17,Cc1cccc(-c2ccc3[nH]c4c(c3c2)CCN2C[C@@H]([C@H](C)O)[C@@H](N(C)C(=O)Nc3ccc(F)cc3)C[C@@H]42)c1,-9.31%
18,Cc1ccccc1Oc1nc(-c2ccccn2)nc2ccccc12,-19.8%
19,O=C1NC(=S)S/C1=C\C=C\c1ccc([N+](=O)[O-])o1,-24.5%
20,COc1cc2c(c(OC)c1OC)-c1ccc(OC)c(=O)cc1C(NC(=O)c1ccccc1)CC2 (stereo not drawn),-26.8%
21,CC(C)N=c1cc2n(-c3ccc(Cl)cc3)c3ccccc3nc-2cc1Nc1ccc(Cl)cc1,-32.7%
22,Cc1ccc2nc(NCc3ccccc3)[nH]c2c1,-21.6%
23,OCCN1CCN(CC(O)COc2ccc(C34CC5CC(CC(C5)C3)C4)cc2)CC1 (stereo not drawn),-39%
24,CCc1ccc(/C=N/NC(=O)c2cc(C3CC3)nc3ccc(Br)cc23)s1,-20.8%

row,SMILES,"DAPI nuclei signal change (viability), lower = more cytotoxic"
1,CCN1CCN(Cc2ccc(NC(=O)c3ccc(C)c(NC(=O)C(=O)c4c[nH]c5ccccc45)c3)cc2C(F)(F)F)CC1,-37.1% and -1.92%
2,NC(=O)c1cc(-c2ccccc2)nc(N2CCOCC2)n1,-7.13%
3,COc1ccc(NC(=O)c2nc(C)c(C3(C)CC(c4ccccc4)=NO3)s2)cc1 (stereo not drawn),-32%
4,CC(C)=CCC/C(C)=C/CNC(=O)C[C@H]1C[C@H](C(=O)N2CCOCC2)[C@@]2(CCC3CCCC3)c3[nH]c4cc(-c5ccco5)ccc4c3CCN2C1=O,24.9%
5,CSc1cccc(NC(=S)N(CCCN2CCCC2)Cc2cccn2Cc2ccc(Cl)cc2)c1,-18.1%
6,FC(F)(F)c1cc(CCN2CCNC[C@@H]2CC2CCCCC2)cc(C(F)(F)F)c1,-5.88%
7,CC1=NN(c2nc3ccccc3[nH]2)C(=O)C1Cc1ccccc1 (stereo not drawn),-13.3%
8,C=C1C(=O)C=C[C@]2(C)C[C@@H]3OC(=O)[C@](C)(O)[C@H]3C[C@@H]12,-47.3%
9,CCC(C)Nc1nc(-c2cccc(OC)c2O)nc2ccccc12 (stereo not drawn),-26%
10,COc1cc(-c2cnc3c(NC=O)cc(-c4cccc(NC(C)=O)c4)cn23)cc(OC)c1OC,-42.5%
11,COc1ccc2c(c1)[nH]c1c(=O)n(/N=C/C3C(C)C=C(C)CC3C)c(=O)[nH]c12 (stereo not drawn),-46.7%
12,COc1ccc2c(c1)c(/C=N/Nc1nc3ccccc3[nH]1)c(C)n2C,-10.3%
13,O=C(c1cc(-c2ccncc2)nc2c(Cl)cccc12)N1CCN(c2ccccc2F)CC1,-24.5%
14,COc1cc2c(c(OC)c1OC)-c1ccc(SC)c(=O)cc1C(NC=O)CC2 (stereo not drawn),-39.5%
15,CC(C)[C@@H]1CC[C@@H](C)C[C@H]1OC(=O)C[n+]1cc(-c2ccc(Cl)cc2)n2c1CCCCC2,-26%
16,CCOc1ccccc1NC(=O)c1cccc(NC(=O)c2ccco2)c1,-17.1%
17,COCCCNC(=O)C(=O)Nc1ccc2c(c1)N(S(=O)(=O)c1cccs1)CCC2,-22.8%
18,CCOc1cc2c(cc1O)CCC1C2CCC2(C)C(O)CCC12 (stereo not drawn),-26.2%
19,Cc1ccc(/C=N/NC(=O)Cc2c[nH]c3ccccc23)c(C)c1,-11.2%
20,COc1ccccc1-c1cc(C(F)(F)F)nc(S(=O)(=O)CCCC(=O)NC(C)C)n1,-48.8%
21,CCN(CC)CC(C)(C)C(=O)/C=C/c1ccc(/C=C/C(=O)C(C)(C)CN(CC)CC)cc1,-32%
22,CCC(CC)NCc1ccc2c(c1)c1ccccc1n2CC,-1.03%
23,O=[N+]([O-])c1ccc(/C=N/Nc2ncccc2[N+](=O)[O-])s1,-26.9%
24,COc1ccc(C(C(=O)NC(C)(C)C)N(Cc2cccs2)C(=O)CCC(=O)Nc2cc(C)on2)cc1 (stereo not drawn),-2.74%

# From PubChem BioAssay AID651582 (Sanford-Burnham Center for Chemical Genomics, 2012)
